From the supplement of paper PMC8728848
Some of the results follow.

Assays:
Test in all cases: glycan array binding signal (z-score within array); higher = stronger binding
Details in all cases: glycan notation: IUPAC condensed, linker removed
[1] = biological target: Fuc(a1-2)[Gal(a1-3)]Gal(b1-4)Glc
Summary of the method: (§1)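 Arrays were curated from the Consortium for Functional Glycomics database, 3228 in total, and kept only where the protein sequence was available. Binding is expressed as a within-array Z-score. This score was averaged across arrays of the same protein sequence at different concentrations or buffers and across linkers, and negative values can be read as non-binding.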

[2] = biological target: Fuc(a1-2)[Gal(a1-3)]Gal(b1-4)GlcNAc
Summary of the method: as §1

[3] = biological target: Fuc(a1-2)[Gal(a1-3)]Gal(b1-4)GlcNAc(b1-2)Man(a1-3)[Fuc(a1-2)[Gal(a1-3)]Gal(b1-4)GlcNAc(b1-2)Man(a1-6)]Man(b1-4)GlcNAc(b1-4)GlcNAc
Summary of the method: as §1

[4] = biological target: Fuc(a1-2)[Gal(a1-3)]Gal(b1-4)GlcNAc(b1-2)Man(a1-3)[Fuc(a1-2)[Gal(a1-3)]Gal(b1-4)GlcNAc(b1-2)Man(a1-6)]Man(b1-4)GlcNAc(b1-4)[Fuc(a1-6)]GlcNAc
Summary of the method: as §1

[5] = biological target: Fuc(a1-2)[Gal(a1-3)]Gal(b1-4)GlcNAc(b1-3)GalNAc
Summary of the method: as §1

[6] = biological target: Fuc(a1-2)[Gal(a1-3)]Gal(b1-4)[Fuc(a1-3)]Glc
Summary of the method: as §1

[7] = biological target: Fuc(a1-2)[Gal(a1-3)]Gal(b1-4)[Fuc(a1-3)]GlcNAc
Summary of the method: as §1

[8] = biological target: Fuc(a1-2)[Gal(a1-3)]Gal(b1-4)[Fuc(a1-3)]GlcNAc(b1-3)GalNAc
Summary of the method: as §1

[9] = biological target: Fuc(a1-2)[Gal(a1-4)]Gal(b1-4)GlcNAc
Summary of the method: as §1

[10] = biological target: Fuc(a1-2)[GalNAc(a1-3)]Gal
Summary of the method: as §1

[11] = biological target: Fuc(a1-2)[GalNAc(a1-3)]Gal(b1-3)GalNAc(a1-3)[Fuc(a1-2)]Gal(b1-4)GlcNAc
Summary of the method: as §1

[12] = biological target: Fuc(a1-2)[GalNAc(a1-3)]Gal(b1-3)GlcNAc
Summary of the method: as §1

[13] = biological target: Fuc(a1-2)[GalNAc(a1-3)]Gal(b1-3)GlcNAc(b1-2)Man(a1-3)[Fuc(a1-2)[GalNAc(a1-3)]Gal(b1-3)GlcNAc(b1-2)Man(a1-6)]Man(b1-4)GlcNAc(b1-4)GlcNAc
Summary of the method: as §1

[14] = biological target: Fuc(a1-2)[GalNAc(a1-3)]Gal(b1-3)GlcNAc(b1-2)Man(a1-3)[Fuc(a1-2)[GalNAc(a1-3)]Gal(b1-3)GlcNAc(b1-2)Man(a1-6)]Man(b1-4)GlcNAc(b1-4)[Fuc(a1-6)]GlcNAc
Summary of the method: as §1

[15] = biological target: Fuc(a1-2)[GalNAc(a1-3)]Gal(b1-3)GlcNAc(b1-3)GalNAc
Summary of the method: as §1

[16] = biological target: Fuc(a1-2)[GalNAc(a1-3)]Gal(b1-4)Glc
Summary of the method: as §1

[17] = biological target: Fuc(a1-2)[GalNAc(a1-3)]Gal(b1-4)GlcNAc
Summary of the method: as §1

[18] = biological target: Fuc(a1-2)[GalNAc(a1-3)]Gal(b1-4)GlcNAc(b1-2)Man(a1-3)[Fuc(a1-2)[GalNAc(a1-3)]Gal(b1-4)GlcNAc(b1-2)Man(a1-6)]Man(b1-4)GlcNAc(b1-4)GlcNAc
Summary of the method: as §1

[19] = biological target: Fuc(a1-2)[GalNAc(a1-3)]Gal(b1-4)GlcNAc(b1-2)Man(a1-3)[Fuc(a1-2)[GalNAc(a1-3)]Gal(b1-4)GlcNAc(b1-2)Man(a1-6)]Man(b1-4)GlcNAc(b1-4)[Fuc(a1-6)]GlcNAc
Summary of the method: as §1

[20] = biological target: Fuc(a1-2)[GalNAc(a1-3)]Gal(b1-4)GlcNAc(b1-3)Gal(b1-4)GlcNAc
Summary of the method: as §1

[21] = biological target: Fuc(a1-2)[GalNAc(a1-3)]Gal(b1-4)GlcNAc(b1-3)Gal(b1-4)GlcNAc(b1-3)Gal(b1-4)GlcNAc
Summary of the method: as §1

[22] = biological target: Fuc(a1-2)[GalNAc(a1-3)]Gal(b1-4)GlcNAc(b1-3)GalNAc
Summary of the method: as §1

[23] = biological target: Fuc(a1-2)[GalNAc(a1-3)]Gal(b1-4)[Fuc(a1-3)]GlcNAc
Summary of the method: as §1

[24] = biological target: Fuc(a1-2)[GalNAc(a1-3)]Gal(b1-4)[Fuc(a1-3)]GlcNAc(b1-3)GalNAc
Summary of the method: as §1

[25] = biological target: Fuc(a1-2)[GalNAc(a1-4)]Gal(b1-4)GlcNAc
Summary of the method: as §1

[26] = biological target: Fuc(a1-2)[GalNAc(b1-3)]Gal
Summary of the method: as §1

[27] = biological target: Fuc(a1-3)GlcNAc
Summary of the method: as §1

[28] = biological target: Fuc(a1-3)[Gal(b1-4)]Glc6S
Summary of the method: as §1

[29] = biological target: Fuc(a1-3)[Gal(b1-4)]GlcNAc
Summary of the method: as §1

[30] = biological target: Fuc(a1-3)[Gal(b1-4)]GlcNAc(b1-2)Man(a1-3)[Fuc(a1-3)[Gal(b1-4)]GlcNAc(b1-2)Man(a1-6)]Man(b1-4)GlcNAc(b1-4)GlcNAc
Summary of the method: as §1

[31] = biological target: Fuc(a1-3)[Gal(b1-4)]GlcNAc(b1-2)Man(a1-3)[Fuc(a1-3)[Gal(b1-4)]GlcNAc(b1-2)Man(a1-6)]Man(b1-4)GlcNAc(b1-4)[Fuc(a1-6)]GlcNAc
Summary of the method: as §1

[32] = biological target: Fuc(a1-3)[Gal(b1-4)]GlcNAc(b1-3)Gal(b1-3)[Fuc(a1-4)]GlcNAc
Summary of the method: as §1

[33] = biological target: Fuc(a1-3)[Gal(b1-4)]GlcNAc(b1-3)GalNAc
Summary of the method: as §1

[34] = biological target: Fuc(a1-3)[Gal(b1-4)]GlcNAc(b1-4)Gal(b1-4)[Fuc(a1-3)]GlcNAc
Summary of the method: as §1

[35] = biological target: Fuc(a1-3)[Gal(b1-4)]GlcNAc(b1-4)Gal(b1-4)[Fuc(a1-3)]GlcNAc(b1-4)Gal(b1-4)[Fuc(a1-3)]GlcNAc
Summary of the method: as §1

[36] = biological target: Fuc(a1-3)[Gal(b1-4)]GlcNAc(b1-6)GalNAc
Summary of the method: as §1

[37] = biological target: Fuc(a1-3)[Gal(b1-4)]GlcNAc(b1-6)[Gal(b1-3)GlcNAc(b1-3)]Gal(b1-4)Glc
Summary of the method: as §1

[38] = biological target: Fuc(a1-3)[Gal(b1-4)]GlcNAc(b1-6)[Neu5Ac(a2-3)Gal(b1-3)]GalNAc
Summary of the method: as §1

[39] = biological target: Fuc(a1-3)[Gal(b1-4)]GlcNAc6S
Summary of the method: as §1

[40] = biological target: Fuc(a1-3)[Gal3S(b1-4)]GlcNAc
Summary of the method: as §1

[41] = biological target: Fuc(a1-3)[Gal3S(b1-4)]GlcNAc6S
Summary of the method: as §1

[42] = biological target: Fuc(a1-3)[GalNAc(b1-4)]GlcNAc
Summary of the method: as §1

[43] = biological target: Fuc(a1-4)GlcNAc
Summary of the method: as §1

[44] = biological target: Fuc(b1-3)GlcNAc
Summary of the method: as §1

[45] = biological target: Gal(a1-2)Gal
Summary of the method: as §1

B1: SefD (Salmonella enterica), Q9L6K6 (protein)
chain: GAYIIRGQNNSAHKLRIRIGGEDWQPDNSGIGMVSHSDFTNEFNIYYFGNGDIPVDTYLISIYATEIEL
glycan array binding signal (z-score) [1]: 0.131 | glycan array binding signal (z-score) [2]: -0.426 | glycan array binding signal (z-score) [3]: -0.315 | glycan array binding signal (z-score) [4]: -0.413 | glycan array binding signal (z-score) [5]: -0.227 | glycan array binding signal (z-score) [6]: 0.064 | glycan array binding signal (z-score) [7]: -0.401 | glycan array binding signal (z-score) [8]: -0.404 | glycan array binding signal (z-score) [9]: 0.157 | glycan array binding signal (z-score) [10]: 0.347 | glycan array binding signal (z-score) [11]: -0.428 | glycan array binding signal (z-score) [12]: -0.385 | glycan array binding signal (z-score) [13]: -0.365 | glycan array binding signal (z-score) [14]: 0.46 | glycan array binding signal (z-score) [15]: 0.025 | glycan array binding signal (z-score) [16]: -0.362 | glycan array binding signal (z-score) [17]: -0.263 | glycan array binding signal (z-score) [18]: 0.144 | glycan array binding signal (z-score) [19]: -0.277 | glycan array binding signal (z-score) [20]: -0.244 | glycan array binding signal (z-score) [21]: 0.382 | glycan array binding signal (z-score) [22]: -0.427 | glycan array binding signal (z-score) [23]: -0.141 | glycan array binding signal (z-score) [24]: 0.921 | glycan array binding signal (z-score) [25]: -0.114 | glycan array binding signal (z-score) [26]: -0.295 | glycan array binding signal (z-score) [27]: -0.283 | glycan array binding signal (z-score) [28]: -0.328 | glycan array binding signal (z-score) [29]: -0.402 | glycan array binding signal (z-score) [30]: -0.372 | glycan array binding signal (z-score) [31]: -0.349 | glycan array binding signal (z-score) [32]: 0.899 | glycan array binding signal (z-score) [33]: -0.049 | glycan array binding signal (z-score) [34]: -0.335 | glycan array binding signal (z-score) [35]: -0.46 | glycan array binding signal (z-score) [36]: -0.53 | glycan array binding signal (z-score) [37]: -0.272 | glycan array binding signal (z-score) [38]: 0.271 | glycan array binding signal (z-score) [39]: -0.156 | glycan array binding signal (z-score) [40]: 0.454 | glycan array binding signal (z-score) [41]: 0.807 | glycan array binding signal (z-score) [42]: -0.127 | glycan array binding signal (z-score) [43]: 2.37 | glycan array binding signal (z-score) [44]: -0.443 | glycan array binding signal (z-score) [45]: 0.679
